The values that follow come from the supplement of paper PMC10681739.

Over roughly 2,700 sequences, “arbitrary fluorescence units” has its median near 4,100; the highest 2% begin near 54,000. The list shows a part of the results.

For the assay, the target named is T1, ETS1 (UniProt P14921).
T1 sequence: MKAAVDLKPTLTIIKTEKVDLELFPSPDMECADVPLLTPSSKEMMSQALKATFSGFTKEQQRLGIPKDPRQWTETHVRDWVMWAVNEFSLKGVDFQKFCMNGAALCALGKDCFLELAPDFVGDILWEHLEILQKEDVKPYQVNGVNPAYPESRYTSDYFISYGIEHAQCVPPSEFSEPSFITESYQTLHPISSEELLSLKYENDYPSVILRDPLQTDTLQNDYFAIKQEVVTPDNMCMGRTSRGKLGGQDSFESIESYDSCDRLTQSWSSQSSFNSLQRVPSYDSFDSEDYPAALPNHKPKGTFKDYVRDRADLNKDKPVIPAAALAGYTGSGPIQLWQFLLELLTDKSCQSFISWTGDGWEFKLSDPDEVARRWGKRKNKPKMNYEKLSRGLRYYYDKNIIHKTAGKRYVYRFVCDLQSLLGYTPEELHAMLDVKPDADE
Description: ETS1 binding intensity (PBM fluorescence) (arbitrary fluorescence units); higher = stronger binding. To be noted: ETS1 concentration 10 nM. Here is the method: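 gcPBM on wild-type 36-bp genomic probes with two neighbouring ETS1 sites (4-24 bp apart). Recombinant human ETS1 (10 nM) was detected with anti-ETS1 antibody fluorescence. Values are medians over 3 replicate spots. The probes sit in constant array flanks that are not printed.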
Regarding AGAGGTTTCCGCTGTGGGATTGCCTATATCCTGCCC, the ETS1 binding intensity was 16300.

The sequence TAGCCTCGACATCCTACCTCAACTTCCGCAGTAGCT came in with an ETS1 binding intensity of 4430.

On to AGCACTCCGGAAACAGCCCTTATGAGGAAACGGCAT, for which the ETS1 binding intensity amounted to 9720.

On to GCAGCAGGAAACACACACAGACCACAGGATGCATAA, for which the ETS1 binding intensity was determined as 1690.

Consider CCTGAGGACACAGGAAGAGACGGAAGGAGCACCTTG, for which the ETS1 binding intensity was found to be 1290.

Sequence AGTTCATCCGCGGCCCTGAGGCCTGTGGGAAACGTA yielded an ETS1 binding intensity of 233.

As for GGAAGGGGAGGAAGTACGTGCTGCGGAAGGAGGAGA, the ETS1 binding intensity amounted to 1970.

As to GTGAAACCACATCCTGGCTCAGCTTCCTCCCTTTCC, the ETS1 binding intensity was 9520.

TGGGGAACAGGAAGTCAGTGGAGGGAAGTTTGTGGG displayed an ETS1 binding intensity of 11100.

AGGGAGTAAAACAGGAAACGGGAAGGCAAGGGAATC came in with an ETS1 binding intensity of 6530.

Consider GTGAGCCATCCTGACTCACTGATTACATCCGGCATT, for which the ETS1 binding intensity was determined as 2230.

Consider GCAGACAGGAAGGCGTGGTGTGGACAGGATGCCCAT, for which the ETS1 binding intensity was determined as 2720.

The sequence CAAGCAGGAGGAAGTCAGCACAGAGGAAACAGAGCT displayed an ETS1 binding intensity of 978.

The sequence AAGAGCAGTTTGTTTCCTGAGGAAGCTTTTGCGGTT had an ETS1 binding intensity of 484.

Consider CACAGAGAACCGGAAGTCCCAGATCCGGTCGGCTCG, for which the ETS1 binding intensity stood at 38700.

ACCCACGCGGAAGGGGAGGAGGGGTTTCCTGACTGA had an ETS1 binding intensity of 262.

ACTTGACATTTCCTGCCTCCTGTTTCCTCATCACTC showed an ETS1 binding intensity of 22500.

For the sequence TGTGTGGAGGAAGCGTGGTGAAGAGGAAGTCACAGA, the ETS1 binding intensity is 444.

In turn, TAACTGGGCAACAGGAAGACATCCTGCCTCTTGTAC showed an ETS1 binding intensity of 2520.

AGACAGGAAGTGATCGAAGCCACCAAAGGATGTGTT showed an ETS1 binding intensity of 14300.

For the sequence CTTTAAGCCGGAACAGGCAGGGCGGAAGTGCGTCAC, the ETS1 binding intensity is 2940.

The sequence CAATAGGAGGCCGGAAGCATCGGAAGTCACATGCTG displayed an ETS1 binding intensity of 10200.

For CCTAGCCACTTCCGGCGCGCGATTTCCCGTGAAGTC, the ETS1 binding intensity worked out at 45700.

For the sequence CTGTTAGCCAGGATGGTCTCGATTTCCTGACCTCAT, the ETS1 binding intensity came out at 404.

For the sequence AAGTCAAAGCCACTTCCTTTTCCTGGTCCCCAGTCG, the ETS1 binding intensity was 7570.

Consider CTGCGCGGGGCGGAAGCGGCCGGGAAGCCACGTGTC, for which the ETS1 binding intensity was 3050.

Take CCCTCCCCTTCCTGCCTGCCCTTCTTCCGGGGCACC: the ETS1 binding intensity was 8020.

Regarding GGGAGGCGGAAAGGGGCGGGACCACTTCCGGCCTAG, the ETS1 binding intensity is 22100.

GCACCCGCTTCCTTTCTGCGTGGGCTTCCTTTCTGC returned an ETS1 binding intensity of 12700.

As to GAGACTACGGAAGCCCAGTAAGACAGGAAGGGCGGG, the ETS1 binding intensity is 531.

For the sequence TTGTAAGCCAGGATGGTCTCGATTTCCTGACCTCGT, the ETS1 binding intensity is 263.

For the sequence CTATCTTCCTGAATTACATGTGGCCCTCTTCCTGTG, the ETS1 binding intensity stood at 1900.

Sequence GGGGTGGTTCCGCTGAGGCGTGGTAGGAAGTGGCTG showed an ETS1 binding intensity of 778.

For the sequence TCCGGGCCTTCCTGGGCCCGTCTGAGGAAACTTGCT, the ETS1 binding intensity is 530.

Regarding TCAGACAGGAAGCAAAAGTCACTGCATCCTGAGCAC, the ETS1 binding intensity was found to be 4490.

Turning to AAGTAGAAGCGGAAGTAGTCGCCTTCCTGGGATTGT, the ETS1 binding intensity stood at 15200.

In turn, AGAGGCAGGAAGCCAGAACACTGCATTTCCTGTGTC returned an ETS1 binding intensity of 6050.

With TGGCCCCCGGAACTCCTCCGTGCACTTCCGGCGGAC, the ETS1 binding intensity was found to be 7620.

Regarding CTGGAGCGGAAGTGGAGGAGCGGCCGGAAGTAGCCG, the ETS1 binding intensity was determined as 21000.

For AGTTAACAGGATGATGACTTAGAAGGAAGTGAACCC, the ETS1 binding intensity was 437.

Take CACAGCCCTTCCGCCACCAGCTTCTTCCTGCCCTAC: the ETS1 binding intensity was 4970.

CTCCCCACTTCCTCTGGTGGGGCAGGAAGCTGAGTG showed an ETS1 binding intensity of 9420.

Take CTACACATCCTTGAAGCCACACTGACATCCTCCTTT: the ETS1 binding intensity came out at 1630.

As for AAAAAAAAAGGAAGTAGACTCATTTCCGCAGCCCCT, the ETS1 binding intensity came out at 4700.

Regarding AAAAGTTGCCCTTCCGGTTATTTCCCTTCCTGTTTG, the ETS1 binding intensity was found to be 21000.

On to GCAGAAGGGAGGAAGAAGCAGGCGGAAGCAGCCGGT, for which the ETS1 binding intensity was determined as 522.

GCTTCAACATCCCATAGTTAGTCATTTCCTCTATTA yielded an ETS1 binding intensity of 1330.

TTGTTAGGAAAATTTCCGCTTCCTGTTGCCAGCCAC registered an ETS1 binding intensity of 16200.

As to GCTTGCTTTCCGCCATGATTGTAGGTTTCCTGAGGC, the ETS1 binding intensity stood at 1350.

Take AGCTACAGGAAAATCTGTGAGTAACTTCCTGACAAG: the ETS1 binding intensity is 549.

The sequence GCGGCTCACCACATCCTCCTCTTCCTCCCCACTCTG had an ETS1 binding intensity of 3110.

GACAGGATGTGCAGCTGCAGCAGAAAGCTTCCTGTC gave an ETS1 binding intensity of 10800.

CGCACTTCCTGGCGTCGCCTGCGGGGGCGGAAACGC registered an ETS1 binding intensity of 24900.

Take AAACGCCGGAAGTCTGACCAGCCTCAGGATGTGCCT: the ETS1 binding intensity is 14200.

For the sequence AAGGGCTGGCAAGGAAGCCACATCCTCATACAGCTC, the ETS1 binding intensity came out at 412.

On to AGCCAGGGCTGCTTCCTTACAGGAAGTGCTTCAGAG, for which the ETS1 binding intensity stood at 5170.

In turn, TAAGATCACAGGAAACAAACCACGGATATGCCAGAA gave an ETS1 binding intensity of 972.

GCTGGGCTTCCTGCCTGTTCTGCAGCTTCCTGCCAC had an ETS1 binding intensity of 17300.

Turning to TCCACTTCCCAGCAGCCCTGCTGACTCCGGAAACTG, the ETS1 binding intensity was 1050.

On to TAGTCCTGAAACTTCCTCTGCTTCCTCCTCCTGCCC, for which the ETS1 binding intensity worked out at 2700.

GTGCGGGTAGGTTCCGGTAGCATCCGGGAGACCCGG registered an ETS1 binding intensity of 3850.

Turning to CGACCGGAAGCCGCAGGTGGGTGAAGCGGAAACGCT, the ETS1 binding intensity came to 19100.

As for ATAACTTCCTCCACTGTGGGACCCAGAAGGAAGTTA, the ETS1 binding intensity was determined as 7900.

The sequence ACTGAAGGAAATGAAAATCTCAACGTTTCCTTTATT registered an ETS1 binding intensity of 560.

In the case of CCGTAGGGCGGATGCTCCAGTGACTTCCTGGCCCTA, the ETS1 binding intensity is 3330.

On to CCTGCATCCTGCTCACCGAGTGAGAATTTCCTGTGA, for which the ETS1 binding intensity was found to be 8500.

For the sequence GCCCAGCTGCTTCCTATAAAAGAGGATGTGAGCTGT, the ETS1 binding intensity was 961.

As to TGGAGCTGCAGGATATTTGTTCTATCCTGTTTACAG, the ETS1 binding intensity was found to be 390.

In turn, CCAGCGGGACATCCTGCCTCACATCCTGGCAGTTGA yielded an ETS1 binding intensity of 17100.

As for GCCAGGATGCTGGAGAGTAGGGCAAGCAGGAAGCTG, the ETS1 binding intensity was 533.

For the sequence AGGGAGGGTTTCCTTGCTCTGATTTCCTCTTGGTTA, the ETS1 binding intensity amounted to 1110.

In turn, GCCGGACCAGGAAAACGCTCCGCTTCCGGCACTGCT displayed an ETS1 binding intensity of 6370.

ATTGCACAGATTAGGAAACGGAAGCATCTGAGTAAC displayed an ETS1 binding intensity of 270.

GCTAATGGGACATCCGCCCATTTTCCGCTGGGTCTG came in with an ETS1 binding intensity of 11700.

The sequence GGGAGGGCTCCAGGAAGGTGAGGAAGTAACGGCATC yielded an ETS1 binding intensity of 260.

Take GGACACAGCCGGAATGTGCAACTTCCGGCAAAAAAC: the ETS1 binding intensity was found to be 13100.

GAATGGGTAGGAAGTGCTCTATCAGGAAAAAGGCAA: the ETS1 binding intensity was determined as 512.

On to AGGCGGCGGCGGAAGCGCTGTGGGGAAGTCGAGGCA, for which the ETS1 binding intensity was determined as 2090.

For TTCAGCCAAAGGACGGAAGGAAGCTAGGCGTCCGCA, the ETS1 binding intensity amounted to 192.

Regarding GCCGGCGCGCGCCGGAAGCCGGAAGCGCGGCAGCGG, the ETS1 binding intensity came out at 9490.
